# Laboratory results: the supplement of paper PMC8728848
# This is one part of the list.
# B1: rCnSL-proA (Clitocybe nebularis) (protein)
# chain: AAFFSLVVLLALLPFGIHASALPSTELTPRVNPNLPGPNDVFVGFRGTNNIVGAIYEKDGIKDTPLNNGADAEMGPGSYITDGLFTARIFASGSAGNNPGTTATVCKIYASGVQWRGAPKGYIPVAYFGNGPTAEQRRQTYLRTLGLPGTAIRFGNLNTNPGQGPTAPRQMVVPPGPLRSLLKASCFPAADTRLPQTLHYFEKRVDWNIITAADSQTWGH
# What was measured:
# Experiment in all cases: glycan array binding signal (z-score within array); higher = stronger binding
# Settings in all cases: glycan notation: IUPAC condensed, linker removed
# Neu5Ac(a2-3)GalNAc = biological target: Neu5Ac(a2-3)GalNAc
# How it was run: (§1)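 Columns mapping to the same glycan were averaged after glycan names were converted to IUPAC-condensed notation. The data come from 3228 arrays in the Consortium for Functional Glycomics database, limited to those with an available protein sequence. Binding is reported as a within-array Z-score averaged across arrays of one protein sequence and across linkers.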
# [1] = biological target: Neu5Ac(a2-3)GalNAc(b1-4)GlcNAc
# How it was run: as §1
# [2] = biological target: Neu5Ac(a2-3)[GalNAc(b1-4)]Gal(b1-4)Glc
# How it was run: as §1
# [3] = biological target: Neu5Ac(a2-3)[GalNAc(b1-4)]Gal(b1-4)GlcNAc
# How it was run: as §1
# [4] = biological target: Neu5Ac(a2-3)[GalNAc(b1-4)]Gal(b1-4)GlcNAc(b1-3)GalNAc
# How it was run: as §1
# [5] = biological target: Neu5Ac(a2-3)[Neu5Ac(a2-6)]GalNAc
# How it was run: as §1
# Neu5Ac(a2-6)Gal = biological target: Neu5Ac(a2-6)Gal
# How it was run: as §1
# [6] = biological target: Neu5Ac(a2-6)Gal(b1-3)GlcNAc(b1-3)[Gal(b1-4)GlcNAc(b1-6)]Gal(b1-4)Glc
# How it was run: as §1
# Neu5Ac(a2-6)Gal(b1-4)Glc = biological target: Neu5Ac(a2-6)Gal(b1-4)Glc
# How it was run: as §1
# [7] = biological target: Neu5Ac(a2-6)Gal(b1-4)GlcNAc
# How it was run: as §1
# [8] = biological target: Neu5Ac(a2-6)Gal(b1-4)GlcNAc(b1-2)Man
# How it was run: as §1
# [9] = biological target: Neu5Ac(a2-6)Gal(b1-4)GlcNAc(b1-2)Man(a1-3)Man(b1-4)GlcNAc(b1-4)GlcNAc
# How it was run: as §1
# [10] = biological target: Neu5Ac(a2-6)Gal(b1-4)GlcNAc(b1-2)Man(a1-3)[Gal(b1-4)GlcNAc(b1-2)Man(a1-6)]Man(b1-4)GlcNAc(b1-4)GlcNAc
# How it was run: as §1
# [11] = biological target: Neu5Ac(a2-6)Gal(b1-4)GlcNAc(b1-2)Man(a1-3)[GlcNAc(b1-2)Man(a1-6)]Man(b1-4)GlcNAc(b1-4)GlcNAc
# How it was run: as §1
# [12] = biological target: Neu5Ac(a2-6)Gal(b1-4)GlcNAc(b1-2)Man(a1-3)[GlcNAc(b1-4)][Neu5Ac(a2-6)Gal(b1-4)GlcNAc(b1-2)Man(a1-6)]Man(b1-4)GlcNAc(b1-4)GlcNAc
# How it was run: as §1
# [13] = biological target: Neu5Ac(a2-6)Gal(b1-4)GlcNAc(b1-2)Man(a1-3)[Man(a1-6)]Man(b1-4)GlcNAc(b1-4)GlcNAc
# How it was run: as §1
# [14] = biological target: Neu5Ac(a2-6)Gal(b1-4)GlcNAc(b1-2)Man(a1-3)[Neu5Ac(a2-3)Gal(b1-4)GlcNAc(b1-2)Man(a1-6)]Man(b1-4)GlcNAc(b1-4)GlcNAc
# How it was run: as §1
# [15] = biological target: Neu5Ac(a2-6)Gal(b1-4)GlcNAc(b1-2)Man(a1-3)[Neu5Ac(a2-6)Gal(b1-4)GlcNAc(b1-2)Man(a1-6)]Man(b1-4)GlcNAc(b1-4)GlcNAc
# How it was run: as §1
# [16] = biological target: Neu5Ac(a2-6)Gal(b1-4)GlcNAc(b1-2)Man(a1-3)[Neu5Ac(a2-6)Gal(b1-4)GlcNAc(b1-2)Man(a1-6)]Man(b1-4)GlcNAc(b1-4)[Fuc(a1-6)]GlcNAc
# How it was run: as §1
# [17] = biological target: Neu5Ac(a2-6)Gal(b1-4)GlcNAc(b1-2)Man(a1-6)Man(b1-4)GlcNAc(b1-4)GlcNAc
# How it was run: as §1
# [18] = biological target: Neu5Ac(a2-6)Gal(b1-4)GlcNAc(b1-2)Man(a1-6)[Gal(b1-4)GlcNAc(b1-2)Man(a1-3)]Man(b1-4)GlcNAc(b1-4)GlcNAc
# How it was run: as §1
# [19] = biological target: Neu5Ac(a2-6)Gal(b1-4)GlcNAc(b1-2)Man(a1-6)[GlcNAc(b1-2)Man(a1-3)]Man(b1-4)GlcNAc(b1-4)GlcNAc
# How it was run: as §1
# [20] = biological target: Neu5Ac(a2-6)Gal(b1-4)GlcNAc(b1-2)Man(a1-6)[Man(a1-3)]Man(b1-4)GlcNAc(b1-4)GlcNAc
# How it was run: as §1
# [21] = biological target: Neu5Ac(a2-6)Gal(b1-4)GlcNAc(b1-2)[Neu5Ac(a2-6)Gal(b1-4)GlcNAc(b1-4)]Man(a1-3)[GlcNAc(b1-4)][Neu5Ac(a2-6)Gal(b1-4)GlcNAc(b1-2)[Neu5Ac(a2-6)Gal(b1-4)GlcNAc(b1-6)]Man(a1-6)]Man(b1-4)GlcNAc(b1-4)GlcNAc
# How it was run: as §1
# [22] = biological target: Neu5Ac(a2-6)Gal(b1-4)GlcNAc(b1-2)[Neu5Ac(a2-6)Gal(b1-4)GlcNAc(b1-4)]Man(a1-3)[GlcNAc(b1-4)][Neu5Ac(a2-6)Gal(b1-4)GlcNAc(b1-4)Man(a1-6)]Man(b1-4)GlcNAc(b1-4)GlcNAc
# How it was run: as §1
# [23] = biological target: Neu5Ac(a2-6)Gal(b1-4)GlcNAc(b1-2)[Neu5Ac(a2-6)Gal(b1-4)GlcNAc(b1-6)]Man(a1-6)[Neu5Ac(a2-6)Gal(b1-4)GlcNAc(b1-2)Man(a1-3)][GlcNAc(b1-4)]Man(b1-4)GlcNAc(b1-4)GlcNAc
# How it was run: as §1
# [24] = biological target: Neu5Ac(a2-6)Gal(b1-4)GlcNAc(b1-3)Gal(b1-3)GlcNAc
# How it was run: as §1
# [25] = biological target: Neu5Ac(a2-6)Gal(b1-4)GlcNAc(b1-3)Gal(b1-4)GlcNAc
# How it was run: as §1
# [26] = biological target: Neu5Ac(a2-6)Gal(b1-4)GlcNAc(b1-3)Gal(b1-4)GlcNAc(b1-2)Man(a1-3)[Neu5Ac(a2-6)Gal(b1-4)GlcNAc(b1-3)Gal(b1-4)GlcNAc(b1-2)Man(a1-6)]GalNAc
# How it was run: as §1
# [27] = biological target: Neu5Ac(a2-6)Gal(b1-4)GlcNAc(b1-3)Gal(b1-4)GlcNAc(b1-3)Gal(b1-4)GlcNAc
# How it was run: as §1
# [28] = biological target: Neu5Ac(a2-6)Gal(b1-4)GlcNAc(b1-3)Gal(b1-4)GlcNAc(b1-3)Gal(b1-4)GlcNAc(b1-2)Man(a1-3)[Neu5Ac(a2-6)Gal(b1-4)GlcNAc(b1-3)Gal(b1-4)GlcNAc(b1-3)Gal(b1-4)GlcNAc(b1-2)Man(a1-6)]GalNAc
# How it was run: as §1
# [29] = biological target: Neu5Ac(a2-6)Gal(b1-4)GlcNAc(b1-3)Gal(b1-4)GlcNAc(b1-3)GalNAc
# How it was run: as §1
# [30] = biological target: Neu5Ac(a2-6)Gal(b1-4)GlcNAc(b1-3)Gal(b1-4)GlcNAc(b1-3)[Neu5Ac(a2-6)Gal(b1-4)GlcNAc(b1-3)Gal(b1-4)GlcNAc(b1-6)]GalNAc
# How it was run: as §1
# [31] = biological target: Neu5Ac(a2-6)Gal(b1-4)GlcNAc(b1-3)Gal(b1-4)GlcNAc(b1-6)[Gal(b1-3)]GalNAc
# How it was run: as §1
# [32] = biological target: Neu5Ac(a2-6)Gal(b1-4)GlcNAc(b1-3)Gal(b1-4)[Fuc(a1-3)]GlcNAc(b1-3)Gal(b1-4)[Fuc(a1-3)]GlcNAc
# How it was run: as §1
# [33] = biological target: Neu5Ac(a2-6)Gal(b1-4)GlcNAc(b1-3)GalNAc
# How it was run: as §1
# [34] = biological target: Neu5Ac(a2-6)Gal(b1-4)GlcNAc(b1-3)[Neu5Ac(a2-6)Gal(b1-4)GlcNAc(b1-6)]GalNAc
# How it was run: as §1
# [35] = biological target: Neu5Ac(a2-6)Gal(b1-4)GlcNAc(b1-6)GalNAc
# How it was run: as §1
# [36] = biological target: Neu5Ac(a2-6)Gal(b1-4)GlcNAc(b1-6)[Gal(b1-3)GlcNAc(b1-3)]Gal(b1-4)Glc
# How it was run: as §1
# [37] = biological target: Neu5Ac(a2-6)Gal(b1-4)GlcNAc(b1-6)[Gal(b1-3)]GalNAc
# How it was run: as §1
# [38] = biological target: Neu5Ac(a2-6)Gal(b1-4)GlcNAc6S
# How it was run: as §1
# Neu5Ac(a2-6)GalNAc = biological target: Neu5Ac(a2-6)GalNAc
# How it was run: as §1
# [39] = biological target: Neu5Ac(a2-6)GalNAc(b1-4)GlcNAc
# How it was run: as §1
# [40] = biological target: Neu5Ac(a2-6)GalNAc(b1-4)GlcNAc6S
# How it was run: as §1
# [41] = biological target: Neu5Ac(a2-6)GlcNAc(b1-4)GlcNAc
# How it was run: as §1
binder,measurement,setting,value
B1,glycan array binding signal (z-score),Neu5Ac(a2-3)GalNAc,-0.764
same,glycan array binding signal (z-score),[1],0.043
same,glycan array binding signal (z-score),[2],-0.325
same,glycan array binding signal (z-score),[3],-0.735
same,glycan array binding signal (z-score),[4],0.606
same,glycan array binding signal (z-score),[5],-0.143
same,glycan array binding signal (z-score),Neu5Ac(a2-6)Gal,-0.538
same,glycan array binding signal (z-score),[6],0.024
same,glycan array binding signal (z-score),Neu5Ac(a2-6)Gal(b1-4)Glc,-0.233
same,glycan array binding signal (z-score),[7],-0.253
same,glycan array binding signal (z-score),[8],-0.168
same,glycan array binding signal (z-score),[9],-0.302
same,glycan array binding signal (z-score),[10],-0.272
same,glycan array binding signal (z-score),[11],-0.465
same,glycan array binding signal (z-score),[12],-0.331
same,glycan array binding signal (z-score),[13],-0.337
same,glycan array binding signal (z-score),[14],-0.338
same,glycan array binding signal (z-score),[15],-0.049
same,glycan array binding signal (z-score),[16],-0.204
same,glycan array binding signal (z-score),[17],-0.112
same,glycan array binding signal (z-score),[18],-0.373
same,glycan array binding signal (z-score),[19],-0.382
same,glycan array binding signal (z-score),[20],-0.629
same,glycan array binding signal (z-score),[21],-0.213
same,glycan array binding signal (z-score),[22],-0.068
same,glycan array binding signal (z-score),[23],-0.276
same,glycan array binding signal (z-score),[24],0.274
same,glycan array binding signal (z-score),[25],-0.269
same,glycan array binding signal (z-score),[26],-0.02
same,glycan array binding signal (z-score),[27],0.06
same,glycan array binding signal (z-score),[28],3.19
same,glycan array binding signal (z-score),[29],-0.18
same,glycan array binding signal (z-score),[30],2.34
same,glycan array binding signal (z-score),[31],-0.716
same,glycan array binding signal (z-score),[32],-0.502
same,glycan array binding signal (z-score),[33],0.044
same,glycan array binding signal (z-score),[34],-0.191
same,glycan array binding signal (z-score),[35],0.067
same,glycan array binding signal (z-score),[36],-0.348
same,glycan array binding signal (z-score),[37],-0.387
same,glycan array binding signal (z-score),[38],-0.577
same,glycan array binding signal (z-score),Neu5Ac(a2-6)GalNAc,-0.38
same,glycan array binding signal (z-score),[39],-0.633
same,glycan array binding signal (z-score),[40],-0.457
same,glycan array binding signal (z-score),[41],-0.602
